Test results: PubChem BioAssay AID2676 (National Center for Advancing Translational Sciences (NCATS), 2010)
Out of some 370,000 compounds screened, about 1,100 (0.3%) were called active. Inconclusive results, whose numbers are uncertain, are shown with a selection of clear calls. Calls follow the shape of the dose curve; as a rule, active = well fitted activation curve with a large enough effect; inconclusive = small, poorly fitted or top-dose-only effect; inactive = flat fitted curve, though single readings scatter. Where the call is inconclusive, the potency comes from a doubtful curve fit.

Biological target: Relaxin receptor 1 (Homo sapiens) (UniProt Q9HBX9)
Assay: qHTS Assay for Agonists of the Relaxin Receptor RXFP1; also: nearly all actives have a fitted effect of over 60% in size
Conditions: HEK293T-RXFP1 cAMP TR-FRET, 30 min; series mostly up to 57.5 µM; activation: at the top concentration
How it was run: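 HEK293 cells stably expressing RXFP1, treated 30 min at 37C with compounds plus PDE4 inhibitor Ro 20174; cAMP measured by HTRF TR-FRET. Normalized to buffer and 29 nM porcine relaxin; EC50 by Hill fit.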
% is scaled to controls: 0 for no effect and ±100 for the full control effect; potency is read from the fitted curve at half-maximal effect; tags tell the direction and shape of the fitted curve.

UniProt Q9HBX9, sequence (Q9HBX9 whole entry, looked up): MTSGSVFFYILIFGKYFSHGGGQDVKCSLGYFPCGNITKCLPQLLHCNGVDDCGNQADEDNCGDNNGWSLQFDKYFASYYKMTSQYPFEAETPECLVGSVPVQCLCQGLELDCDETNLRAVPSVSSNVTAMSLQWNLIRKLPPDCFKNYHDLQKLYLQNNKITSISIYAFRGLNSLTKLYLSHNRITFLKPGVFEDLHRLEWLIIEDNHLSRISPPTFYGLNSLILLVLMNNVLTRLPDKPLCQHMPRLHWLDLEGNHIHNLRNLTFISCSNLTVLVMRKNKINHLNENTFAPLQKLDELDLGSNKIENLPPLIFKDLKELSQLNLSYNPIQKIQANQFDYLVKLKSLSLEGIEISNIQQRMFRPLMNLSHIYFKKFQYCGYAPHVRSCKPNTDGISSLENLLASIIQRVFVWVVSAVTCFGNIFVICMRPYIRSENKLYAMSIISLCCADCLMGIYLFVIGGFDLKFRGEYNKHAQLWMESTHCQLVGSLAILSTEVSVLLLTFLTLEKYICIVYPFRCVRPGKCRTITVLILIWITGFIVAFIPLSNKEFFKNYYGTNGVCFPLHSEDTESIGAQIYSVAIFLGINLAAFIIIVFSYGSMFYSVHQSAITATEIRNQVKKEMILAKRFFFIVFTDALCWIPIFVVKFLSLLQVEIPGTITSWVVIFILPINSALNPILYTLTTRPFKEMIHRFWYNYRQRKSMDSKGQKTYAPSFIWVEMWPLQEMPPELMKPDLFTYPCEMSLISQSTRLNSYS

activation, inactive:
COc1cc(O)cc2cc3c(c(O)c12)C(=O)CC(C)(O)O3 (centres undefined) 1.97%
CCOc1cc(-c2nc(-c3ccc(OC)cc3)no2)cc(OCC)c1OCC -0.962%
CCc1nn2cc(-c3ccccc3)nc2s1 0.818%
C/C(N)=C(/C#N)C(=O)CN1C(=O)NC(Cc2c[nH]c3ccccc23)C1=O (centres undefined) 0.199%
CCS(=O)(=O)N1CC(=O)N(c2ccc(Cl)cc2)C(C)(C(=O)NC2CCCCC2)C1 (centres undefined) -1.32%
Cc1cccc(S(=O)(=O)c2c(N)n(Cc3ccco3)c3nc4ccccc4nc23)c1 1.42%
S=C(Nc1ccccc1Cl)N1CCCCCC1 -3.6%
Cc1ccc(Cl)cc1N1CCN(S(=O)(=O)c2ccc3c(c2)CC(C)N3C(=O)C2CCC2)CC1 (centres undefined) 0.163%
CC(=O)c1c(C)[nH]c(C(=O)OCC(=O)Nc2cccc(S(=O)(=O)N3CCCC3)c2)c1C 0.711%
CCCn1c2ccccc2c2cnn(CC(=O)N(CCCOC)Cc3ccco3)c(=O)c21 3.46%
CCC(=O)N(C)/C=C1\Sc2ccccc2C1=O 1.35%
CCOC(=O)c1c(C)[nH]c2c1cc(O)c1ccccc12 -6.38%

Potency, inconclusive:
CCc1cccc(C)c1NC(=O)Cn1nc(C)c2nn(-c3ccc(Cl)cc3)c(C)c2c1=O 39.8 µM [activator, single point]
O=C1C(=O)N(Cc2ccccc2)C(c2cccc(O)c2)/C1=C(\O)c1ccc2c(c1)OCCO2 (centres undefined) 25.1 µM [activator, partial curve]
COc1ccccc1Cn1c(=S)[nH]c2cc(C(=O)NC(C)C)ccc2c1=O 28.2 µM [activator, partial curve]
Cc1ccc(OCC(=O)Nc2ccccc2OCc2cc(=O)n3ccccc3n2)cc1C 31.6 µM [activator, single point]
COc1ccc2c(C)cc3n[nH]c(=S)n3c2c1 25.1 µM [activator, partial curve]
O=C(COc1ccc(Cl)cc1)OCc1cc(=O)n2nc(C3CC3)sc2n1 35.5 µM [activator, single point]
Cc1cc(-c2sccc2Br)nc(-n2cccc2)n1 15.8 µM [activator, partial curve]
CC(C)C(=O)N1CCN(CCN2C(=O)c3cccc4cccc(c34)C2=O)CC1 35.5 µM [activator, partial curve]
Cc1ccc2nc3c(cc(C(=O)NCC4CCCO4)c(=N)n3CCCOC(C)C)c(=O)n2c1 (centres undefined) 20 µM [activator, partial curve]
CCOc1ccc(N2CC(O)=C(c3nc4ccccc4c(=O)[nH]3)C2=N)cc1 31.6 µM [activator, single point]
COc1cccc(Cc2nc3ccccc3nc2SCC(=O)N2CCCc3ccccc32)c1 39.8 µM [activator, single point]
Cc1ccc2c(=O)c(C(=O)c3ccc(F)cc3)cn(CC(=O)Nc3ccc4c(c3)OCCO4)c2n1 35.5 µM [activator, single point]
Cc1ccc(-c2cc(C(F)F)nc3sc4c(=O)[nH]cnc4c23)cc1 31.6 µM [activator, single point]
CCN(CC)c1ccc(-c2c(C#N)c(N)nc(OC)c2C#N)cc1 31.6 µM [activator, single point]
COc1ccc2cc(C(=O)NCc3ccccc3)c(=O)oc2c1 35.5 µM [activator, single point]
Cc1ccc(CNC(=O)Cc2csc3ccccc23)cc1 35.5 µM [activator, single point]
Cc1ccc2nc(SCC(=O)Nc3ccc4sc(C)nc4c3)c(C#N)cc2c1 35.5 µM [activator, single point]
CCOC(=O)c1nn(-c2ccc(F)cc2)c(=O)cc1OCC(=O)Nc1cccc(C)c1 31.6 µM [activator, single point]
Cc1ccc(C2/C(=C(/O)c3ccc4c(c3)CC(C)O4)C(=O)C(=O)N2CCCn2ccnc2)cc1 (centres undefined) 17.8 µM [activator, partial curve]
Cc1ccccc1C(=O)Nc1nnc(S(=O)(=O)N2CCCCC2)s1 28.2 µM [activator, partial curve]
CC(C)c1nc2sc3c(SCC(=O)NCc4ccco4)ncnc3c2c2c1CCC2 39.8 µM [activator, single point]
COc1ccccc1CNC(=O)CCCn1c(=O)c2ccccc2n(CC(=O)Nc2c(C)cc(C)cc2C)c1=O 35.5 µM [activator, single point]
CCCCCc1nc2c(c(=O)c3ccccc3n2C)c(=O)n1Cc1ccc(OC)cc1 39.8 µM [activator, single point]
COC(=O)C(CC(C)C)NC(=O)CSc1nc(-c2ccccc2)c(C#N)c(=O)[nH]1 (centres undefined) 31.6 µM [activator, partial curve]
COc1cccc(COC(=O)c2c(C)nn(-c3ccccc3)c2Cl)c1OC 31.6 µM [activator, single point]
CCOc1ccc(C(=O)Nc2ccc(NC(=O)c3ccco3)c(Cl)c2)cc1Br 35.5 µM [activator, single point]
CCOC(=O)c1ccc2ncc3c(-c4ccccc4)nn(-c4ccc(F)c(Cl)c4)c3c2c1 35.5 µM [activator, single point]
CCOc1ccc(NC(=O)CSc2ncc3c(n2)-c2ccccc2N(Cc2ccccc2C)S3(=O)=O)cc1 28.2 µM [activator, single point]
CCOC(=O)c1sc2nc(C)nc(N3CCCCC3C)c2c1C (centres undefined) 20 µM [activator, partial curve]
COc1cccc(CSc2nc3ccccc3cc2C=O)c1 25.1 µM [activator, partial curve]
Nc1cc(=O)[nH]c(SCC(=O)Nc2cccnc2Cl)n1 17.8 µM [activator, partial curve]
O=C(Cn1c(=O)n(CC2CCC(C(=O)NCCc3ccccc3)CC2)c(=O)c2ccccc21)Nc1ccccc1 (centres undefined) 35.5 µM [activator, single point]
O=C(NC1CCCCCC1)c1cc2c(=O)n3ccccc3nc2s1 28.2 µM [activator, partial curve]
COc1cc(C(=O)N=C2SC3CS(=O)(=O)CC3N2c2ccccc2)cc(OC)c1OC (centres undefined) 11.2 µM [activator, partial curve]
Cc1ccc(C2C(C(=O)c3ccco3)=C(O)C(=O)N2c2nnc(C)s2)cc1 (centres undefined) 17.8 µM [activator, partial curve]
COc1ccc(C(=O)N=C2SC3CS(=O)(=O)CC3N2Cc2ccc(F)cc2)cc1 (centres undefined) 35.5 µM [activator, single point]
COc1cccc(-c2nnc(NC(=O)Cc3cccs3)s2)c1 35.5 µM [activator, single point]
Cc1ccc(CSc2ncc(Cl)c(C(=O)NCc3ccccc3)n2)cc1 39.8 µM [activator, single point]
Cc1ccc(-n2nc(C)c3c(C)c(CCC(=O)NC(C)c4ccccc4)c(C)nc32)cc1 (centres undefined) 31.6 µM [activator, single point]
COC(=O)CSc1nc2nc(-c3cccs3)cc(C(F)(F)F)c2c(=O)[nH]1 20 µM [activator, partial curve]
CCC(C)NC(=O)c1cc(Sc2cccc(Cl)c2)nc2ccccc12 (centres undefined) 39.8 µM [activator, single point]
Cc1nn(-c2ccc(F)cc2)c2nc(N)c(C#N)c(-c3cccs3)c12 39.8 µM [activator, single point]
Cc1ccccc1NC(=O)Cn1cc(S(=O)(=O)c2ccccc2)c(=O)c2ccccc21 35.5 µM [activator, single point]
COc1ccc(-c2nc(Cn3c(=O)cc(C)c4c(C)nn(-c5ccccc5)c43)c(C)o2)cc1OC 39.8 µM [activator, single point]
Nc1c(C(=O)Nc2ccccc2Br)sc2nc(-c3cccs3)ccc12 25.1 µM [activator, partial curve]
Cc1c(C(C)(C)C)sc(=NC(=O)c2ccccc2O)n1C 39.8 µM [activator, single point]
COCCn1c(=S)[nH]c2sc3c(c2c1=O)CCC(C)C3 (centres undefined) 28.2 µM [activator, partial curve]
Cc1ccc2nc(CSc3nnc(-c4ccncc4)n3C)cc(=O)n2c1 22.4 µM [activator, partial curve]
CCN(CC)C(=O)Cn1c(=O)n(CCCCCC(=O)NCc2ccc3c(c2)OCO3)c(=O)c2sccc21 39.8 µM [activator, single point]
CC(C)c1nnc(N2C(=O)C(O)=C(C(=O)c3cccs3)C2c2ccccc2)s1 (centres undefined) 14.1 µM [activator, partial curve]

Potency, active:
COc1ccccc1C(=O)Nc1ccc2oc(-c3cccc4c(Br)cccc34)nc2c1 10 µM
COc1ccc(Br)cc1-c1nc(CCl)cs1 17.8 µM
